Results reported in ChEMBL document CHEMBL4888484, “Replenishing the malaria drug discovery pipeline: Screening and hit evaluation of the MMV Hit Generation Library 1 (HGL1) against asexual blood stage Plasmodium falciparum ,using a nano luciferase reporter read-out” (2022).
“And” between values parts separate entries of the source, which are not always exact repeats. Equal values may be shown once. About 410 (8.5%) of roughly 4,800 compounds showed an effect of 50% or more. Some of the results follow.

System: Plasmodium falciparum
Assay: Confirmatory screen in NF54 pLDH assay, in single point, at 2uM, 72h
Type: functional, Erythrocyte
Conditions: timepoint 72 hour

| Structure (SMILES) | % Inhibition | % Inhibition (2 µM) |
| --- | --- | --- |
| Cc1cc(S(=O)(=O)NC[C@H]2CCCCN2)sc1C | -6% |  |
| Oc1nccc(C(F)(F)C(F)(F)F)n1 | -3% |  |
| O=C(/N=C(/c1ccccc1)N1CCCCC1)C(F)(F)C(F)(F)C(F)(F)C(F)(F)C(F)(F)C(F)(F)F |  | 1% and 0% |
| CC1CC(=O)N(CC(=O)N2CCCCCC2)C(=O)C1 | -9% |  |
| COc1ccccc1C1c2[nH]c3ccccc3c2C[C@H]2C(=O)N(CC(O)c3ccccc3)CC(=O)N12 (stereo not given in full) | 12% |  |
| Cc1nn(Cc2cccc(C(F)(F)F)c2)c(=O)n1-c1ccc(OCc2ccccc2)cc1 | -11% |  |
| O=C(OCc1ccc(C(F)(F)F)nc1)c1ccc(C(F)(F)F)nc1 | 14% |  |
| COC1CCCC1NC(=O)Nc1ncc(Br)cc1C (stereo not given) | 79% |  |
| Cc1nc(Nc2ccc(F)cc2)nc2c1ncn2-c1ccc(F)cc1 | -14% |  |
| Cc1cc(NC(=O)C(=O)NC2CC(C)CC(C)(C)C2)n(-c2nc3c(c(=O)[nH]2)CCC3)n1 (stereo not given) | 84% |  |
| CC(C)(NCc1ccccc1Cl)C(=O)O | 13% |  |
| Cc1ccsc1CNCc1ccc2c(c1)OCO2 | -16% |  |
| COc1cc(OC)c(OC)cc1CNC(C)C | 5% |  |
| O=C1NCCC[C@@H]1NS(=O)(=O)N1CCc2ccccc2C1 | 3% |  |
| Cc1ccc2c(c1)c1c(n2S(=O)(=O)c2ccc(C(C)(C)C)cc2)CCCN(C)C1 | 94% |  |
| CC(C)CC1NC2(C(=O)N(Cc3ccc(F)cc3)c3ccccc32)C2C(=O)N(c3ccccc3)C(=O)C12 (stereo not given) | 1% |  |
| COc1ccc(-n2cnc3cc(NCc4cccs4)ccc32)cc1 | -6% |  |
| Cc1nn(-c2nncc(-c3ccc(Cl)cc3)n2)c2c1[C@@H](c1cc(F)ccc1F)CC(=O)N2 | 18% |  |
| CN1CCN(C(=O)[C@@H]2Cc3ccccc32)CC1 | 3% |  |
| COc1ccc(CC(=O)N2CCC3(CC[C@@H]3O)CC2)cc1Cl | 2% |  |
| COc1cc(-c2nnc3n2CC(C)(C)CN3)cc(OC)c1OC | 14% |  |
| CCN(CC)C(=O)[C@@H]1CCCN1C(=O)CCCc1ccccn1 | -11% |  |
| CCN1C(=O)Cc2cc(NS(=O)(=O)Cc3ccccc3)ccc21 | 12% |  |
| CNC(=NCc1ccc(-c2ccc(OC)cc2)s1)NC | 7% |  |
| CN1CCC(N2CCN(Cc3ccc4cc(O)ccc4c3)CC2)CC1 | 92% |  |
| O=C1O[C@@H](CO)CN1c1cccc(F)c1 | -2% |  |
| O=C(Nc1ccccc1)Nc1cnc(-n2ccnc2)nc1 | 30% |  |

| Structure (SMILES) | % Inhibition | % Inhibition (2 µM) |
| --- | --- | --- |
| CCc1ncsc1C(=O)OCC1(C#N)CCOCC1 | -2% |  |
| COc1ccc([C@H](NC(=O)CCc2ccccc2)c2c(O)ccc3ccccc23)cc1 | -6% |  |
| COCC(=O)NC1CCC(NC(=O)c2csc(COc3cc(C)ccc3C(C)C)n2)CC1 (stereo not given) | 7% |  |
| CC(C)(CO)NCc1ccccc1Cl | 0% |  |
| COc1ccc(S(=O)(=O)Nc2c(C)nc3ncnn3c2O)cc1 | -4% |  |
| O=C(N1CCC(O)CC1)C(F)(F)Cl | 10% |  |
| Cc1ccc(NC(=O)c2c(C)nc3sc(C(=O)NCc4ccccc4)c(N)c3c2-c2cccs2)c(C)c1 | 11% |  |
| COc1ccsc1S(=O)(=O)N(CCN(C)C)C1CCCC1 | -9% |  |
| Cc1cc(NC(=O)C(=O)Nc2cnn(CCC(C)C)c2C)n(C)n1 | -22% |  |
| CCCCC(=O)N1CCc2[nH]nc(C(=O)NCCc3ccc(OC)cc3)c2C1 | 2% |  |
| COc1ccc(CCNC(=O)CCC(=O)Nc2ccc(OCc3ccccc3)cc2)cc1OC | -7% |  |
| CN(Cc1cccc(OC(F)(F)F)c1)[C@H]1CCc2nn(C)c(=O)n2CC1 | 3% |  |
| COc1ccc(CCNC(=O)Cc2ccc3c(c2CO)OCO3)cc1OC | -21% |  |
| O=C(Nc1ccccc1)C(=O)Nc1ccc2ncc(Cl)n2c1 | 7% |  |
| Cc1cc(C(=O)N2CCCC[C@H]2c2nc(=O)[nH][nH]2)nn1C(F)F | 10% |  |
| CC(C)c1ccc2ncnc(N[C@H]3CCc4[nH]cnc4C3)c2c1 | 101% |  |
| CCOC(=O)c1nccc(C#N)c1Cl | 5% |  |
| O=C(Nc1ccccc1Cl)OCc1cncs1 | 9% |  |
| O=S(=O)(NCc1cccnc1)Oc1ccccc1O | 12% |  |
| Cc1c(NS(=O)(=O)c2cccc3nsnc23)c(-n2cnnc2)nn1C | 3% |  |
| CC(Oc1ccc2c(c1)C(c1ccccc1)N(Cc1ccccc1F)CC2)C(=O)NC1CC1 (stereo not given) | 50% |  |
| Cc1cc(-c2ccc(S(=O)(=O)N3CCOCC3)s2)n[nH]1 | 7% |  |
| Cc1ccc(S(=O)(=O)N2CC[C@H](CC(=O)NCc3ccccc3)C2)cc1C | -9% |  |
| O=C1NCCC[C@@H]1NC(=O)[C@@H]1CN(C(=O)C2CCCCC2)CCN1C(=O)Nc1ccccc1 | 12% |  |
| CC1=NN(C(=O)Cc2ccc(Cl)c(O)c2)C(=O)C1 | 11% |  |
| Cc1ccc(S(=O)(=O)Nc2cccc(-c3csc(C)n3)c2)cc1 | 10% |  |
| CNC(=O)CCS(=O)(=O)CCCC(=O)Nc1c(C)cc(C)cc1C | -15% |  |

| Structure (SMILES) | % Inhibition | % Inhibition (2 µM) |
| --- | --- | --- |
| O=C(c1ccccc1)n1c(=O)n(C(=O)c2ccccc2)c2ccccc21 | 7% |  |
| CC(=O)N1CCc2sc(C(=O)N3CCN(c4ccccc4F)CC3)cc2C1 | 6% |  |
| Cn1nnc(Cn2nnc(-c3ccccc3)n2)n1 | 0% |  |
| O=S(=O)(CCCc1cn[nH]c1)[C@H]1CCc2c(F)cc(F)cc21 | 13% |  |
| COc1ccc(CC(=N)Nc2cc3cc(OC)c(OC)cc3c(Cc3ccc(OC)c(OC)c3)n2)cc1OC | 89% |  |
| COc1nc(-c2cccc(C(=O)N3C[C@@H]4CC[C@H](C3)C(=O)N4)c2)ncc1F | 85% |  |
| COc1cccc(C(=O)N2CCCO[C@H](C(C)C)C2)c1 | -14% |  |
| CC(C)(C)OC(=O)NCC#Cc1cccc(F)c1 | -19% |  |
| COc1ccc2[nH]c(-c3nnc(Cn4c(C)cc5ccccc54)s3)cc2c1 | 7% |  |
| CNS(=O)(=O)c1ccc(NCc2nnc3ccccn23)c(F)c1 | 6% |  |
| C[C@](O)(CNC(=O)Cn1nc2ccccn2c1=O)c1cccs1 | -1% |  |
| Cc1ccc(CC[C@H]2Nc3ccccc3C(c3ccccc3)(c3ccccc3)O2)o1 | 66% |  |
| C=CCCS(=O)(=O)NCc1ccncc1 | -10% |  |
| COc1ccc2cc3n(c2c1)C[C@](C(=O)NC1CCCCCC1)(c1ccccc1)N(Cc1ccccc1F)C3=O | -26% |  |
| Cc1ccc(S(=O)(=O)N(CC(=O)N[C@@H](C)c2ccccc2)c2cccc(Br)c2)cc1 | 11% |  |
| CCc1cc(=O)[nH]c(-n2nc(C3CC3)cc2NC(=O)C2CCCCC2)n1 | 87% |  |
| Nc1ncn(C(=O)c2ccc(Cl)cc2)n1 | -8% |  |
| CC(C)c1nnc(CN2CC[C@H](OC(F)F)C2)o1 | 8% |  |
| OC[C@H](Nc1ncncc1Br)c1ccccc1F | 10% |  |
| COc1ccc(-c2oc(C)c(C)[n+]2[O-])cc1OC | -3% |  |
| Cn1c(-c2ccc(Br)cc2)c[n+](CC(=O)c2ccc(Br)cc2)c1N | -4% |  |
| N#Cc1ccc(NCCc2ccc(O)cc2)cn1 | -13% |  |
| CC(NC(C)C1CN(C(=O)OC(C)(C)C)C1)c1ccccc1Br (stereo not given) | 8% |  |
| CN(C)Cc1ccc(NC(=O)c2cc(F)cc3c(=O)c4cc(F)ccc4[nH]c23)cc1 | 95% |  |
| CCc1c(C)nn2c(c1C)c(-c1ccccc1)[n+]1c(C)c(CC)c(C)nc21 | 49% |  |
| COCc1nncn1C1CN(C(=O)Cc2cc(OC)cc(OC)c2)C1 | -6% |  |
| C[n+]1ccccc1/C=C/c1c[nH]c2ccccc12 | 81% |  |

| Structure (SMILES) | % Inhibition | % Inhibition (2 µM) |
| --- | --- | --- |
| Cc1ccc(NC(=O)Cn2cnc3nc(N(C)Cc4ccccc4)sc3c2=O)c(Br)c1 | -10% |  |
| CC[N+](CC)(CC(=O)OC1CC2CCC1(C)C2(C)C)CC(=O)OC1CC2CCC1(C)C2(C)C (stereo not given) | 92% |  |
| CCCC[C@H](CC)C(=O)NC1CCCCC1 | 8% |  |
| O=C(CCC1CCCC1)N1CCC(N2CCCCCC2)CC1 | 12% |  |
| Cc1ncsc1-c1nc(CNc2ccc(C(F)(F)F)cc2Cl)no1 | -15% |  |
| CC(C)c1nc(O)cc(CN2CCCCC2)n1 | 4% |  |
| COc1ccc(OC)c(NC(=O)c2c(C)noc2-c2ccc(Cl)cc2)c1 | 5% |  |
| Cc1cc(O)nc(CN2CC(C)CC(C)C2)n1 (stereo not given) | 0% |  |
| CC(C)(C)OC(=O)N1CCC(Cn2nccc2N)CC1 | -22% |  |
| COc1ccc(CN(Cc2ccncc2)CC2CCN(C3CCN(C)CC3)CC2)c(F)c1 | 93% |  |
| CCC(=O)OC1(C#CCOc2ccc(OC)cc2)CCN(C)CC1 | 9% |  |
| CCOc1cc(C(=O)N[C@H]2CCS(=O)(=O)C2)cc2occc12 | 8% |  |
| S=c1oc2ccccc2n1CNC1CCCCC1 | 1% |  |
| COCc1nn2c3c(nnc2c1-c1ccccc1)C(=O)CC(C)(C)C3 | 11% |  |
| CC1(C)C[C@@H](NC(=O)c2cc3[nH]cnc3cc2F)CCO1 | 11% |  |
| O=C(CCn1nc(-c2ccc(Br)cc2)ccc1=O)NCc1ccc2c(c1)OCO2 | -6% |  |
| CCc1ncsc1C(=O)N(C)[C@@H]1CCC[C@H]1O | -17% |  |
| O=C1CN(C(=O)c2ccc(-c3ccccc3F)o2)c2ccccc2N1 | -10% |  |
| CC(C)c1ccc(S(=O)(=O)Nc2ccc3nc(NC(=O)c4ccccc4)sc3c2)cc1 | 6% |  |
| CCc1ccc(C(NC(=O)N2CC3C4CCC(O4)C3C2)C(C)(C)C)o1 (stereo not given) | -4% |  |
| C[C@H]1CCCCN1S(=O)(=O)c1ccc(-c2ccc(Cl)cc2)cc1 | 3% |  |
| CN(C(=O)Cc1cc(Br)ccc1F)c1nncn1C | 14% |  |
| C[C@@H]1C[C@@H](Nc2ccccc2)c2ccccc2N1C(=O)COc1ccc(Br)cc1 | 10% |  |
| CC(C)(C)c1cc(CN2CCN(S(N)(=O)=O)CC2)n[nH]1 | 9% |  |
